The structures appear in SMILES notation. In all, about 50,000 compounds went through this assay and about 800 (1.6%) showed an effect of 50% or more. This is one part of the list.

This assay addresses Bcl-2-like protein 10 (Homo sapiens) (UniProt Q9HD36). The assay can be described thus: TR3 peptide-Bcl-B binding displacers, biochemical primary FP assay, phenotype converters (AID 1240).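 Note: 0% = Bcl-B with tracer peptide and DMSO and 100% = tracer peptide lacking Bcl-B.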 As to conditions: GST-Bcl-B / FITC-TR3 peptide fluorescence polarization; stronger effect = higher value; compound at 3.75 mg/L.
Sequence of UniProt Q9HD36 (Q9HD36 whole entry, looked up): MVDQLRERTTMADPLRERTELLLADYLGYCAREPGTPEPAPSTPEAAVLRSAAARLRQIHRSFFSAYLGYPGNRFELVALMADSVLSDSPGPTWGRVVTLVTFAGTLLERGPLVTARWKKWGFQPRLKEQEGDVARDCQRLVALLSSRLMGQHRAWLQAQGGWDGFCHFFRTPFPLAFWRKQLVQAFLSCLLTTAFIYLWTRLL
Take `Cc1c(NC(=O)c2cc(-c3ccc(Br)cc3)nc3ccccc23)c(=O)n(-c2ccccc2)n1C`: the displacement was -11%. Consider `Cc1ccc(C)c(NC2=NC3(CCCC3)N=C(N)N2)c1`, for which the displacement was -15.6%. Under `COc1ccc(-n2nc3cc(C)c(NC(=O)c4ccc(Br)o4)cc3n2)cc1` stands 117%. Under `O=C1NC(=Nc2cccnc2)S/C1=C\c1ccc(F)cc1` stands 3.5%; under `COC(=O)C1(C(=O)OC)C(CC(C)C)C1(C(=O)OC)C(=O)OC`, 15%. Then `COc1ccc(/C=C/C(=O)c2cccs2)cc1[N+](=O)[O-]`, with -11.9%; and `CCOc1ccc(N(CC(=O)Nc2cccc(OC)c2)S(=O)(=O)c2ccc(SC)cc2)cc1`, with 3.4%. For the molecule `CC(C)c1ccc(NC(=O)CN(c2ccc(Cl)cc2)S(C)(=O)=O)cc1`, the displacement stood at 3%. As to `O=c1[nH]c2ccccc2c(O)c1-c1cc2ccccc2oc1=O`, the displacement is 4.4%.

With `Cc1ccc(NC(=O)CN(c2ccc(Cl)cc2)S(C)(=O)=O)cc1C`, the displacement is -4.1%. For `O=C(NC1CCS(=O)(=O)C1)C12CC3CC(CC(C3)C1)C2` (stereo not drawn), the displacement was 4.5%. `O=C(N/N=C/c1ccc(Cl)c([N+](=O)[O-])c1)c1ccccn1`: the displacement amounted to 3.3%.

In the case of `CS(=O)(=O)N(CC(=O)NC1CC1)c1ccc(Oc2ccccc2)cc1`, the displacement is -5.1%. For the molecule `O=C(CCCC(=O)Nc1nc2ccccc2s1)Nc1nc2ccccc2s1`, the displacement is -7.2%. Then `O=C1N/C(=N\c2ccccn2)SC1Cc1ccccc1` (stereo not drawn), with -6.4%; and `COc1cccc(-n2cnc3cccc(N)c32)c1`, with 27.3%; and `Cc1cccn2c(=O)c(/C=C3\SC(=S)N(C(C)c4ccccc4)C3=O)c(NCCc3ccccc3)nc12` (stereo not drawn), with 14.1%. Under `NC(=O)NC(=O)c1nc2ccccc2[nH]c1=O` stands 11.6%. Then `CC(C)(C)C(=O)Nc1cccc(C(=O)NCc2ccc(CNC(=O)c3cccc(NC(=O)C(C)(C)C)c3)cc2)c1`, with 9.9%. For `CC(=O)c1ccc(NC(=O)CSCC(=O)Nc2ccc3ccccc3c2)cc1`, the displacement came out at 14.3%. Consider `O=C1/C(=C/c2ccc(-c3ccc([N+](=O)[O-])cc3)o2)SC(=S)N1Cc1ccccc1`, for which the displacement was found to be 9.4%.

On to `COc1c(Cl)cc(C(=O)Nc2ccc3oc(-c4ccccc4)nc3c2)cc1Cl`, for which the displacement was found to be 12.6%.

As to `CC1=NN(c2cccc(C(=O)O)c2)C(=O)/C1=C\c1ccc(-c2ccc(Cl)c(C(=O)O)c2)o1`, the displacement worked out at 25.1%. On to `CN1CCN(CCOCCOc2ccccc2Br)CC1`, for which the displacement is -11.5%. For the molecule `O=CNc1ccccc1Oc1ccccc1`, the displacement came to 10.4%.

Consider `COc1cc2c(cc1NC(=O)c1ccccc1I)oc1ccccc12`, for which the displacement is -3.9%.

As for `COC(=O)/C(=C\C(=O)c1ccccc1)Nc1ccccc1`, the displacement was -11.5%. For the molecule `O=C(Nc1cc(Cl)cc(Cl)c1)c1ccc2ccccc2c1`, the displacement was 4.9%. Under `COCCN1C(=O)/C(=C\c2ccc3c(c2)OCO3)C(C(=O)OC)=C1C` stands -8%; under `S=c1[nH]nc(-c2cccnc2)n1-c1ccccc1`, 0.1%. With `OC(COc1ccc(Cl)cc1)CN1CCCCC1` (stereo not drawn), the displacement turned out to be 3.9%. Regarding `Cc1ccccc1CN1CCN(Cc2ccncc2)CC1`, the displacement is -2.7%.

As to `O=C(Nc1ccc2nn(-c3ccccc3)nc2c1)c1ccc(I)cc1`, the displacement came to 13.1%. Under `Cc1cc(C)c(S(=O)(=O)Nc2cc(Br)c3oc4c(c3c2)C(=O)CCC4)c(C)c1` stands 2.6%; under `Cc1cccc(-c2noc(-c3ccc(Cl)cc3Cl)n2)c1`, 1.1%.

As for `COc1ccc(S(=O)(=O)N2CCN(c3ccccc3)CC2)cc1[N+](=O)[O-]`, the displacement was -6.6%. Then `COC(=O)C1=C(C)NC(=O)/C1=C\c1cccc(OC)c1`, with 7.8%; and `O=C1c2ccccc2C(=O)N1N1C(=O)c2cccc([N+](=O)[O-])c2C1=O`, with 15.5%.

Take `CC(C)(C)C(=O)/C=C(/O)C(=O)NCc1ccccc1`: the displacement was 2%. As for `Cc1ccc(C(=O)Nc2c(C)cc(C)cc2C)cc1`, the displacement was 9.2%. Then `O=C1C=CC(=O)N1c1ccc(SC(F)F)cc1`, with 7.6%; and `CN(C)C(=O)c1ccccc1NC(=O)c1ccccc1Cl`, with 3%. Under `O=c1[nH]cc(Cc2ccc(O)cc2)c(=O)[nH]1` stands -7.1%. With `COc1ccc(CCNc2cc(N3CCN(S(=O)(=O)c4ccccc4)CC3)ccc2[N+](=O)[O-])cc1OC`, the displacement came out at 7.5%. Then `CCN1C(=O)/C(=C\c2ccccc2Sc2ccc(Cl)cc2)SC1=S`, with -5.5%; and `Cc1cc(NC(=O)CSc2nnc3c4ccccc4n(C(C)C)c3n2)no1`, with 11.1%. Then `O=C(Cc1c2ccccc2nc2ccccc12)c1ccccc1`, with 11.6%; and `O=C1N/C(=N/N=C/c2ccccc2)SC1Cc1ccc(Cl)cc1Cl` (stereo not drawn), with 1.3%. Under `N#Cc1c(-c2ccc(Cl)cc2)cc(C2CC2)nc1SCC(N)=O` stands 28.9%. Regarding `COc1ccc2c(c1)OCC/C2=N/OC(=O)c1ccc(Cl)cc1`, the displacement was -9.7%. Under `COc1cccc(C(=O)Nc2ccc3oc(-c4cccc(Br)c4)nc3c2)c1` stands 12.1%; under `Cc1ccc(OCC(=O)Nc2ccc(Nc3ccccc3)cc2)c(Br)c1`, 26%.

For `CCCC1=NN2C(=N)/C(=C/c3ccc(-c4ccc(C(=O)OCC)cc4)o3)C(=O)N=C2S1`, the displacement came to 164%.

`Cc1ccc(C(=O)Nc2c(C(=O)N3CCC(C(N)=O)CC3)cnn2-c2ccccc2)cc1`: the displacement was determined as 0.9%.

For the molecule `O=C1/C(=C/c2ccccc2)S/C(=N/N=C/c2ccccc2)N1c1ccc(O)cc1`, the displacement stood at 11.8%.

On to `CC(CNC(=O)c1ccc(F)cc1)CN(C)C` (stereo not drawn), for which the displacement is -3.5%. Then `O=C(O)c1cc2nc(-c3ccccc3)cc(-c3ccccc3)n2n1`, with -7.1%; and `CCOC(=O)C1CCN(C(=O)c2cc3c(C)nn(-c4ccccc4)c3s2)CC1`, with -13.9%; and `COc1cc2nc(-c3ccc(Oc4cccc(-c5nc6cc(OC)c(OC)cc6c(=O)o5)c4)cc3)oc(=O)c2cc1OC`, with 9.6%. In the case of `O=C(CC(Nc1ccc2ncccc2c1)c1ccccc1)c1ccccc1` (stereo not drawn), the displacement turned out to be 1.1%. Then `COc1cc2c(cc1NCc1cccc([N+](=O)[O-])c1)oc1ccccc12`, with -6.6%; and `CCN1/C(=C2/OC(=S)N(C)C2=O)C=Cc2cc(C)ccc21`, with -1.6%. Under `O=C1NC(=S)N(c2ccc(Cl)c(Cl)c2)C(=O)/C1=C/c1cccs1` stands -1.1%; under `COc1cc(NC(=O)CC(c2ccccc2)c2ccccc2)c(OC)cc1Cl`, 7.4%; under `COc1cc(OC)c(C2SCCN2S(=O)(=O)c2ccc3ccccc3c2)cc1OC` (stereo not drawn), 4.2%. On to `CCCN1C(=O)c2ccccc2NC1c1ccc(Cl)c(Cl)c1` (stereo not drawn), for which the displacement is -1.1%. Under `O=C(O)C(Cc1c[nH]c2ccccc12)NS(=O)(=O)c1ccccc1[N+](=O)[O-]` (stereo not drawn) stands 12.2%; under `CC(=O)c1ccc(OC(C)C)c(CSc2nc(O)cc(=O)[nH]2)c1`, -3.9%.

The record behind these values is PubChem BioAssay AID1240 (Sanford-Burnham Center for Chemical Genomics, 2008).
